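Assay format: 96-well plates, 48-hour exposure. Abbreviation: GI50, concentration required for 50% inhibition of growth. Definition used: TGI = concentration required for complete inhibition of growth.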 Some results are limits rather than exact numbers.

This assay concerns NCI-H322M lung. The assay can be described thus: inhibition of tumour cell growth, NCI panel, 48 h.
Turning to `Nc1nc(-c2cccc([N+](=O)[O-])c2)c(N=Nc2ccc(Br)cc2)s1`, the GI50 is 14 µM and the TGI was determined as 40.9 µM.

Consider `O=C(Nc1cccc(-c2nc(-c3ccc(NC(=O)c4cccs4)cc3Cl)no2)c1)Nc1ccc(NC(=O)C2CC2)c(C(F)(F)F)c1`, for which the GI50 was 0.318 µM and the TGI came to 1.79 µM.

For `C#C[C@]1(O)CC[C@H]2[C@@H]3CC=C4c5sc(Nc6cc(Cl)ccc6OC)nc5CC[C@]4(C)[C@H]3CC[C@@]21C`, the GI50 was 6.05 µM and the TGI was above 100 µM.

Regarding `Cc1ccc(-c2csc(N/N=C/c3nc4ccccc4n3C3CC3)n2)cc1`, the GI50 is 6.47 µM and the TGI is above 100 µM.

Take `CCC1=Cc2c(OC)cccc2OC12C=Cc1c(OC)cccc1O2` (stereo not given): the GI50 was 3.97 µM and the TGI was above 100 µM.

For the origin of these results see PubChem BioAssay (NCI).
